From paper PMC7104723 (Cell Research, 2020)

Tested on: Vero-E6, Huh-7, LLC-MK2 and RD cells
Conditions: various target cells (Vero-E6, Huh-7, LLC-MK2, RD); 2 days, 37 °C; CCK-8, absorbance 450 nm; 5 μM = highest concentration tested

Which “Half cytotoxic concentration (CC50)” value does the source give for `CC[C@H](C)[C@H](NC(=O)[C@H](C)NC(=O)[C@H](CCC(=O)O)NC(=O)[C@H](CCC(=O)O)NC(=O)[C@H](CC(C)C)NC(=O)[C@H](CCCCN)NC(=O)[C@H](CCCCN)NC(=O)[C@H](CCSC)NC(=O)[C@H](CCC(=O)O)NC(=O)[C@H](Cc1ccc(O)cc1)NC(=O)[C@H](CCC(=O)O)NC(=O)[C@H](CC(C)C)NC(=O)[C@H](CC(=O)O)NC(=O)[C@H](CC(C)C)NC(=O)[C@H](Cc1ccccc1)NC(=O)[C@@H](NC(=O)[C@@H](NC(=O)[C@H](CC(N)=O)NC(=O)[C@@H](NC(=O)[C@H](CCC(N)=O)NC(=O)[C@H](CC(=O)O)NC(=O)[C@H](CC(C)C)NC(=O)[C@@H](N)CO)[C@@H](C)CC)C(C)C)[C@@H](C)O)C(=O)N[C@@H](CCCCN)C(=O)N[C@@H](CCCCN)C(=O)N[C@@H](CC(C)C)C(=O)N[C@@H](CCC(=O)O)C(=O)N[C@@H](CCC(=O)O)C(=O)N[C@@H](CO)C(=O)N[C@@H](Cc1ccc(O)cc1)C(=O)N[C@H](C(=O)N[C@@H](CC(=O)O)C(=O)N[C@@H](CC(C)C)C(=O)N[C@@H](CCCCN)C(=O)N[C@@H](CCC(=O)O)C(=O)N[C@@H](CC(C)C)C(=O)NCC(=O)N[C@@H](CO)C(=O)NCC(=O)N[C@@H](CO)C(=O)NCC(=O)NCCOCCOCCOCCOCCC(=O)N[C@@H](CSCC(=O)O[C@H]1CC[C@@]2(C)C(=CC[C@H]3[C@@H]4CC[C@H]([C@H](C)CCCC(C)C)[C@@]4(C)CC[C@@H]32)C1)C(N)=O)[C@@H](C)CC` [EK1C4] here?
The value was greater than 5 µM.
